# Assay results reported in the supplement of paper PMC12632987.
# The full ranking holds about 4,500 sequences; the median of “median log2 fold change of GCK-ALFA target abundance (FLAG IP / Myc IP barcode read proportion)” is about 0.078, and the lowest 2% start at about -0.6. The list shows a part of the results.
# B1: GBRAP_160_4610 (protein)
# chain: SEKKKEFKKEVEEEFEEAKEMIEGESIEQRANIVDVTIGEIIIEADELEVVSDESLDKIDEIRDEVVSTILANPDLTDEEIKALIEEAREKILKIIEEDE
# B2: GBRAP_74_6534 (protein)
# chain: SDELVAAIVEAIRAGRVDEAVALLEEAIATEDEEEKVRALLAAARAVVEHRDRLTPEQILRLADALVRLRDSIDDELLTDEAWDAFAAVLAAALAAEQAR
# B3: GBRAP_79_6747 (protein)
# chain: GVEEARRALVEALRVVLPDLTEEEAAEAVASDEALRAALLRAGISEEMAAELLEAIDAIPELAAERFRRTVERMEGLEPEDRRDVLEATIAAVIYEAEQR
# B4: GBRAP_125_3045 (protein)
# chain: GLEALVAALAALARRLGFSEEEVEEIARLAREHGVKGTLIAILLALGEEELAELAAKLTDEQVAEVLRALAAWLEAHPDASREEVLARLRELLEAALAKQ
# B5: GBRAP_160_4231 (protein)
# chain: SEVVERIVEITREELEEALELIAGESPEERAVILAVTVGRILLEVDEIEEATDEMEEVVDEEVERAAERLLAAADASPEELRALVEEAVRRLRERLEEVE
# B6: GBRAP_11_2796 (protein)
# chain: KKEKLEELAKELKKAAEALDALIKAGPGDKEGWKKAEELLEKAEKLAKEAGDEDTAELLEIAKEDLKKAKADPANRQQYLNNALAAVRVAEGLTLLKIEE
# B7: GBRAP_14_3797 (protein)
# chain: MEERKKKINEIAEETIEIVEEILEEAPEEVKEKVLELIEEARDKIIEENLNSDEAAELADELVEEVEKILEEAPEEVKAEVLAAVAVLGGEIILEIEELE
# B8: GBRAP_160_4059 (protein)
# chain: EESKEELLESVEEARELILETLDEEGVEAALVVAAGEFGAVIMEASEDEDADEELEDRLAEIRDDLLARLKAAKDASKEEQKKIVEEAAERAKEAIEELY
# B9: GBRAP_14_3819 (protein)
# chain: LEELKAEIKKILDELEKELVEDLGLDEEEVTKLVEKALEEIFKALEEGENPEEKIEEIFEKLEKEVVKLAAKLGADTAAAARALVTDAKYEVLELIEKHS
# B10: GBRAP_83_6912 (protein)
# chain: KEKVAVATTGDNIEEAVDAVIDLTKEEGYEVSLEILSTKEDKEKILKAVERLAKAGIETEVTILLFGATEEEAKELEKELKEIAKKYGVNIKIEVILIEE
# B11: GBRAP_52_6165 (protein)
# chain: AAARAKALAEELVAAVKAGDEERVEEILEEAARTMDDEELALFLDALAAAVAGLTPEEKERVVEAAIRFEDIAVEAGHDEELLSYHVARVAGAAYDALQA
# B12: GBRAP_42_5724 (protein)
# chain: MYLVDLEVYVETLEELEEADKIVEEKNEEYEKKYGIIIRLEVTAPEEIEEKAKEINEKFEEIAKKATKEHDWVFVASSAKEVEKAIEAGVDEALEEIKEE
# B13: GBRAP_184_5254 (protein)
# chain: STLERVIEAENVEELRKKMAEIREEALASGADVLLTLEVKELTKEMIEALAEEIKKLREEGYTGKVTVGITALLSEEMVDYAIELFDEAGAQVVLALPEE
# B14: GBRAP_52_5891 (protein)
# chain: KLEEAVEKLKKAVEAMKAGDKEEAEKILKEIVENFDEETILAAVEKLAEEMETKSLEDAEAFYETALLLAEIILEAGGSEEIASYIEAIAGGTLYKISQK
# B15: GBRAP_52_6078 (protein)
# chain: MEEEIEKIAEEIVEAIEAGDKEKALKIIEEAIKKLSVEEIKKMLELAAKKVAELGEEKHELFVDVLDEAEELLLKAGISEEDALLIVGAAEAALAKAVAA
# B16: GBRAP_128_3188 (protein)
# chain: SVEEVKAYTAEAMDKIKNSDKETARKIAEELMERLKTWSLEEVEAAVEVVLEKLPELSAEHLEILADVSREKLPEFTPEKANLVAEVEVEALNLLEELEE
# B17: GBRAP_128_3183 (protein)
# chain: SMEEVRARTREAMEAIRNSSPEEARRIATELMEWMLTLSLEEVEAAAEVILEMLPELSAEKLEILADVMRELRPRFSPEKAEIVAGVEVEALNEAEELEE
# B18: GBRAP_52_5883 (protein)
# chain: SLEEAIKLLKEMVKAVKEGKKEEAEKIAKKIVKEFSDETILEAVKELAKEVLEKSLEEAEAFFEAAELLADVLIEEGGDENIASEIEAIAGAALYEVEQK
# B19: GBRAP_184_5112 (protein)
# chain: MTLERTIKVENLEEAKEKLTKVVNEAKAKKADLLVIVEVPNLTPELAQVIMDQAAAAKAAGIKNVLVEIVSDNLSEEVRDTIYEKADKYGLTNVVLAEEE
# B20: GBRAP_11_2705 (protein)
# chain: KKEKLKEGAELAKKAAELIKQLLEKGVDDQELLKQLEETIKKLKELTEKYGDESHKKLAEIAEELFKKALEDPENAEQYLQELLATLRVLEGQYLLDIEE
# B21: GBRAP_80_6818 (protein)
# chain: MEEEIEAYLKEIEKIDKELAKIVKEAVEIAKELGVPLKEIARLVKALAELAKLDLEKAKKLAEELLKKLKEAKEKGDKEYALAEVVDATSEALLEVEELE
# B22: GBRAP_160_4722 (protein)
# chain: SEKIKEFVKEAREELLKAVEDSEGESRENARALFEGAAGEILMDAFENPFFTDEMEDVVDEILDKLVEELVANYDASLEEKKAIVEKYMEELEKKLLEIA
# B23: GBRAP_128_3437 (protein)
# chain: AQEELLQEALELLDEIVESDVETAAELAKQLAELLGQLDEESRDEVVEYFEEKAKELTEEKLEAVADALREQVPQLDADTANAVNEMIVILGEQILELEE
# B24: GBRAP_95_7039 (protein)
# chain: DDDVLLAESLAEVLETAVDLGDLERARRLARELLEALLRLPPDAVRLDLSPEAVELIIRVARETLPRERAIEALEKLAAALTDPEARALAEAALAELRAE
# B25: GBRAP_125_2967 (protein)
# chain: ATEQDLADLRTLALALGLSEEEAEEAAELARASSIRGTLYAIFAGLGYEELAELVAEITEEDARAVLRATAAYIAAHPDATPDEVVAHATALAKEALAAR
# B26: GBRAP_11_2879 (protein)
# chain: KKEKLLEIAKLAEELAELIEELLEKGVDDEELREEAEKKLKELTELVEKHANEALKKLAEILKEEWQKALEDEENAEKYLQEALTIARVLSGDALLEAEE
# B27: GBRAP_160_4574 (protein)
# chain: SEEMKKLKEEIKEITEEAKEFIEGQSREEQIAIVKVAMGDILLLLDENPLVSDETEDKAAAIGDALIAYIEAHPDLTAEEIKELLEKATEEIIKLIEKEE
# B28: GBRAP_160_4809 (protein)
# chain: MEKAEKLLEEARKDLLETAEASKDLPIEDRARLLEAEGYTSILDFEEELNISDETEEKLAQVVDDLVATLLANPDLSDEEVLALVEEAAEKMKEIVKEEV
# B29: GBRAP_160_4756 (protein)
# chain: KEELKKLKEEIEEIFEEYLEILKEVPASEAPTVVRGAMGEVLMLVMSSDAASDELEEKIGEILDKAEAEVKANADKPVEYHIGVLEEARKEIIELIEKEI
# Biological target: GABARAP, O95166
# Assay: median log2 fold change of GCK-ALFA target abundance (FLAG IP / Myc IP barcode read proportion) (log2 ratio); each designed protein is fused to an ALFA-tag nanobody in HEK293 cells to bring the named protein to FLAG-tagged glucokinase (GCK); Myc marks an untargeted standard; higher = target protein stabilised (more abundant)
# Settings: target protein: 3xFLAG-MCP-GCK-ALFA reporter; HEK293 landing pad (RPLP)
# How it was run: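 Sequencing of reverse-transcribed, amplified circular RNA barcodes from anti-FLAG and anti-Myc immunoprecipitates provided the readout for an ALFA-nanobody-fused binder library recombined into HEK293 landing-pad cells. Those cells were induced with 2 μg mL^−1 doxycycline, transfected with a plasmid expressing a FLAG-tagged target and a Myc-tagged standard, and lysed after 48 h. Target abundance is the per-binder median log2 ratio of FLAG to Myc barcode read proportions. Only barcodes at a proportion of ≥10^−7 in both replicates and binders with ≥3 barcodes per replicate were kept, with a 10^−6 pseudocount added before the two replicates were pooled.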
# Sequence of GABARAP, O95166 (O95166 whole entry, the tested form may be a part): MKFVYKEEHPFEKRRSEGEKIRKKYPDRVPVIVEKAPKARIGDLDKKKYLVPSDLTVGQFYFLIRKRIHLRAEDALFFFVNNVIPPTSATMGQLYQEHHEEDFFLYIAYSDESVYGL
row,Binder,median log2 fold change
1,B1,-0.247
2,B2,0.00205
3,B3,0.209
4,B4,-0.33
5,B5,-0.25
6,B6,0.0688
7,B7,-0.167
8,B8,0.0274
9,B9,0.361
10,B10,-0.0598
11,B11,0.0686
12,B12,-0.157
13,B13,0.0348
14,B14,0.421
15,B15,-0.254
16,B16,-0.0272
17,B17,0.186
18,B18,0.0979
19,B19,0.114
20,B20,0.367
21,B21,0.0801
22,B22,-0.454
23,B23,-0.0498
24,B24,0.261
25,B25,-0.219
26,B26,0.335
27,B27,-0.302
28,B28,-0.35
29,B29,-0.039
